In PubChem BioAssay AID2676 (National Center for Advancing Translational Sciences (NCATS), 2010):
In all, about 370,000 compounds went through this assay and about 1,100 (0.3%) were called active. Inconclusive results, whose numbers are uncertain, are shown with a selection of clear calls. Calls come from the whole dose curve; as a rule, active = well fitted activation curve with a large enough effect; inconclusive = small, poorly fitted or top-dose-only effect; inactive = flat fitted curve, though single readings scatter. A potency beside an inconclusive call is a rough fit, not a confirmed value.

What follows are molecules tested against Relaxin receptor 1 (Homo sapiens) (UniProt Q9HBX9) (assay: qHTS Assay for Agonists of the Relaxin Receptor RXFP1). Settings: HEK293T-RXFP1 cAMP TR-FRET, 30 min; series mostly up to 57.5 µM; activation: at the top concentration.
In short: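 HEK293T cells stably expressing RXFP1 were pretreated with the PDE4 inhibitor Ro 20174, exposed to compounds for 30 min at 37C, lysed, and cAMP was read by TR-FRET. Data normalized to buffer (basal) and 29 nM porcine relaxin (100%).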
% is set by controls: 0 for no effect and ±100 for the full control effect; potency is the fitted concentration of half-maximal effect; tags give direction and shape of the fitted curve.
Note: nearly all actives have a fitted effect of over 60% in size.

Sequence of UniProt Q9HBX9 (Q9HBX9 whole entry, looked up): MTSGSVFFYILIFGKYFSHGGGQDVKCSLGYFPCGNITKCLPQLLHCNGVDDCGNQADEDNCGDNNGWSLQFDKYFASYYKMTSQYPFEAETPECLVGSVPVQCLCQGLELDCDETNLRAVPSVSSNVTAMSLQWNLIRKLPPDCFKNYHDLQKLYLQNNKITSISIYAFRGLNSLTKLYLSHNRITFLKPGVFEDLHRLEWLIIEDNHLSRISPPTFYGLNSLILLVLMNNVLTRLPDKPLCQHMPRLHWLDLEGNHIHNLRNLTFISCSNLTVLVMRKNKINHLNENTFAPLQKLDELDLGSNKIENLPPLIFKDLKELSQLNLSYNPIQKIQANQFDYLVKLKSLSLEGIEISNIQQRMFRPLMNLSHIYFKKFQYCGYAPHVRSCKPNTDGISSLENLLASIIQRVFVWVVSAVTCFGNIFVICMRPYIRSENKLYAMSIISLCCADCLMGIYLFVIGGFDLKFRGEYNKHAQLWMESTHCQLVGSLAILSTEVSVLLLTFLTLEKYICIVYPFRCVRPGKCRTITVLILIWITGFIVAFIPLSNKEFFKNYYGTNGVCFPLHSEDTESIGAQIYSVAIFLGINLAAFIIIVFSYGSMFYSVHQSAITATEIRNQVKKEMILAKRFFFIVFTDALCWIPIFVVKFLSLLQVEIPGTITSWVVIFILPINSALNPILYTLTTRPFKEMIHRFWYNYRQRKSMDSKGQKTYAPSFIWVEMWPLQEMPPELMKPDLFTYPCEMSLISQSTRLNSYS

For `COc1cc(NC(=O)Cn2c(=O)n(Cc3ccco3)c(=O)c3sc4ccccc4c32)cc(OC)c1`, which Potency is on record?
The Potency was inconclusive: 25.1 µM [activator, partial curve].

`O=C1C(=O)N(C2CCN(S(=O)(=O)c3ccc(F)cc3)CC2)CCN1Cc1ccccc1` was tested. Which Potency did it give?
The Potency was inconclusive: 39.8 µM [activator, single point].

With `O=[N+]([O-])c1ccccc1S(=O)(=O)Nc1cccc(-c2ccc3nncn3n2)c1` as the molecule, how does the Potency read?
Its Potency is inconclusive: 20 µM [activator, partial curve].

`COC(=O)CSc1nc(N)c(C#N)c(-c2ccco2)c1C#N` was tested. Which Potency did it give?
The Potency was inconclusive: 39.8 µM [activator, single point].

`CCc1ccc(CNC(=O)CSc2cc(=O)n(C)c3ccc(Cl)cc23)cc1` was tested. Which Potency did it give?
The Potency was inconclusive: 39.8 µM [activator, single point].

Which Potency does the source give for `Cc1cc(=O)n2nc(-c3ccccc3)sc2c1C#N` here?
Its Potency is inconclusive: 39.8 µM [activator, single point].

With `CCc1ccc2nc(N(CCCN(C)C)C(=O)c3ccc(C(=O)c4ccccc4)cc3)sc2c1` as the molecule, how does the “activation” value read?
The value was inactive: 1.28%.

`CC(=O)N(C)/C=C1\Sc2ccccc2C1=O` was tested. Which “activation” value did it give?
The value was inactive: -0.0204%.

For `CC1=C(c2ccc(C)c(C)c2)S(=O)(=O)N=C1N1CCC(C(=O)NCc2ccc(C)o2)CC1`, which Potency is on record?
Its Potency is inconclusive: 39.8 µM [activator, single point].

How did the Potency turn out when `Cc1cccc(C)c1NC(=O)COC(=O)c1ccc2c(c1)OCO2` was run?
The Potency was inconclusive: 31.6 µM [activator, single point].

With `CCOc1ccc(NC(=O)Cn2cc(C(=O)c3ccc(C)cc3)c(=O)c3cc4c(cc32)OCO4)cc1` as the molecule, how does the Potency read?
Its Potency is inconclusive: 39.8 µM [activator, single point].

`Cn1cc(Cl)c(-c2n[nH]c(=S)n2-c2ccc(F)cc2)n1` was tested. Which Potency did it give?
The Potency was inconclusive: 25.1 µM [activator, partial curve].

How did the Potency turn out when `COc1ccc(C2C=C(c3ccc(Cl)cc3)Nc3nc(NC(=O)CCC(=O)O)nn32)cc1` (configuration not stated) was run?
The Potency was inconclusive: 35.5 µM [activator, single point].

For `CCOC(=O)c1ccc(NC(=S)N2CCN(c3ccc(N4CCOCC4)nn3)CC2)cc1`, which Potency is on record?
The Potency was inconclusive: 39.8 µM [activator, single point].

With `Cc1cccn2c(=O)c3cc(C(=O)NCCN4CCOCC4)c(=N)n(CCCN4CCOCC4)c3nc12` as the molecule, how does the Potency read?
The Potency was inconclusive: 25.1 µM [activator, partial curve].

Which Potency does the source give for `COc1ccc(CCNC(=O)COc2ccc3c(C)cc(=O)oc3c2)cc1OC` here?
The Potency was inconclusive: 39.8 µM [activator, single point].

Which Potency does the source give for `CC(=O)OCC(CCn1cnc2cnc(N)nc21)COC(C)=O` here?
Its Potency is inconclusive: 17.8 µM [activator, partial curve].

With `Cc1cc2cc3c(cc2nc1SCC(=O)Nc1c(C)cccc1C)CCC3` as the molecule, how does the Potency read?
Its Potency is inconclusive: 39.8 µM [activator, single point].

With `COC(=O)c1cc(Cl)c(NC(=O)/C=C/c2ccc(Cl)cc2)cc1OC` as the molecule, how does the “activation” value read?
Its value is inactive: 0.321%.

For `CN(C(=O)CSc1nc2ccc(NC(=O)c3cccs3)cc2s1)c1ccccc1`, which “activation” value is on record?
Its value is inactive: -1.11%.

How did the Potency turn out when `CCC(Sc1ccc2nnc(-c3cccnc3)n2n1)C(=O)O` (configuration not stated) was run?
The Potency was active: 14.1 µM.

How did the “activation” value turn out when `CCc1ccc(NS(=O)(=O)c2ccc3[nH]cc(C(=O)NC4CCCC4)c(=O)c3c2)cc1` was run?
Its value is inactive: 4.16%.

`COCCNC(=O)CSc1nc(-c2ccc(F)cc2)[nH]c1-c1ccc(Cl)cc1` was tested. Which “activation” value did it give?
Its value is inactive: -9.1%.

`CC(CNC(=O)Cn1ncc2c3ccccc3n(Cc3cccc(Cl)c3)c2c1=O)c1ccccc1` (configuration not stated) was tested. Which Potency did it give?
Its Potency is inconclusive: 28.2 µM [activator, single point].

How did the Potency turn out when `O=C(COc1ccccc1)Nc1ccc(OCc2cc(=O)n3ccsc3n2)cc1` was run?
Its Potency is inconclusive: 35.5 µM [activator, single point].

With `Cc1cc(F)ccc1Nc1nc2ccccc2n2nnnc12` as the molecule, how does the Potency read?
The Potency was inconclusive: 31.6 µM [activator, single point].

`CCN(CC)S(=O)(=O)c1ccc(OC)c(NC(=O)c2ccc(=O)[nH]c2)c1` was tested. Which Potency did it give?
Its Potency is inconclusive: 14.1 µM [activator, partial curve].

How did the Potency turn out when `CCOc1ccc(CNC(=O)c2sc3nc(C)cc(C)c3c2-n2cccc2)cc1` was run?
The Potency was inconclusive: 22.4 µM [activator, partial curve].

How did the Potency turn out when `Cc1nc2cc(-c3cccc(F)c3)nn2c(C)c1CCC(=O)NC1CCCCC1` was run?
The Potency was inconclusive: 39.8 µM [activator, single point].

Which Potency does the source give for `COc1ccc(C(=O)CCC(=O)Nc2cccc(C(C)=O)c2)cc1` here?
Its Potency is inconclusive: 39.8 µM [activator, single point].

For `COc1ccccc1OCC(=O)N(Cc1cccs1)C1CCS(=O)(=O)C1` (configuration not stated), which “activation” value is on record?
Its value is inactive: 0.411%.

Which Potency does the source give for `CSc1ccc(NC(=O)C2CCN(c3ncccn3)CC2)cc1` here?
The Potency was inconclusive: 35.5 µM [activator, single point].

`CC1CCN(S(=O)(=O)c2nnc(NC(=O)c3ccccc3Br)s2)CC1` was tested. Which Potency did it give?
Its Potency is inconclusive: 25.1 µM [activator, partial curve].

With `O=C(NC(=S)NCCc1ccccc1)C1CCCCC1` as the molecule, how does the “activation” value read?
Its value is inactive: 0.512%.

For `COc1cc2c(cc1OC)C(COc1ccc3c(C)cc(=O)oc3c1)N(C(=O)Cc1ccccc1)CC2` (configuration not stated), which Potency is on record?
The Potency was active: 35.5 µM.

Which Potency does the source give for `Cc1ccccc1OCC(=O)Nc1ccc(C(=O)OCc2cc(=O)n3ccsc3n2)cc1` here?
Its Potency is inconclusive: 39.8 µM [activator, single point].

`O=C(NCc1ccc(Cl)cc1)c1ccc2c(c1)NC(=O)C(CS(=O)(=O)Cc1ccc(F)cc1Cl)N2` (configuration not stated) was tested. Which “activation” value did it give?
The value was inactive: -0.371%.

How did the Potency turn out when `Cc1nc2ccc3nc(NC(=O)c4ccc5c(c4)OCCO5)sc3c2s1` was run?
The Potency was inconclusive: 28.2 µM [activator, single point].

With `COc1cc(C(=O)Nc2nc(-c3cc(C)ccc3C)c(C)s2)ccc1OCC(=O)Nc1ccc(F)cc1` as the molecule, how does the Potency read?
The Potency was active: 31.6 µM.

`O=C(Nc1ccc2oc(-c3ccccc3Cl)nc2c1)c1cncc(Br)c1` was tested. Which Potency did it give?
The Potency was inconclusive: 39.8 µM [activator, single point].

For `N#Cc1cc2c(nc1SCC(=O)Nc1sc3c(c1C#N)CCC3)CCCCC2`, which Potency is on record?
Its Potency is inconclusive: 31.6 µM [activator, single point].

Which Potency does the source give for `Cc1cc(=O)n2c(C(=O)Nc3ccc(C(=O)OC(C)C)cc3)c(C(=O)Nc3ccccc3)sc2n1` here?
The Potency was inconclusive: 39.8 µM [activator, single point].
